The results in this text go back to paper PMC2841195.

Sequences of proteins named here, by UniProt entry; tags and fusion partners are left off. A change or cut given only in a name is not applied to a line headed by its entry. Residues count along the entry.
UniProt P14416: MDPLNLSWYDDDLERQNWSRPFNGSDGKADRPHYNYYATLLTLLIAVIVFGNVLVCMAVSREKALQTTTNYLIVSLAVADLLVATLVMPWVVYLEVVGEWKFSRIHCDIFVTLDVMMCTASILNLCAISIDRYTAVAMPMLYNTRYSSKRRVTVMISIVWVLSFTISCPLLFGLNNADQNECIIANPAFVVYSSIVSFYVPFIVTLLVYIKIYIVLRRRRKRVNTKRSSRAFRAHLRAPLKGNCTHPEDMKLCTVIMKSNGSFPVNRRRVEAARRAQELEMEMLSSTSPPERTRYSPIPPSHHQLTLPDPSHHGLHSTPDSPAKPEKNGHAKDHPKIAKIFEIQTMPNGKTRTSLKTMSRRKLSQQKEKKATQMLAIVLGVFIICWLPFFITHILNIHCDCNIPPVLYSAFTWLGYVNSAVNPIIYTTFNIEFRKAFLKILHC
UniProt P33535: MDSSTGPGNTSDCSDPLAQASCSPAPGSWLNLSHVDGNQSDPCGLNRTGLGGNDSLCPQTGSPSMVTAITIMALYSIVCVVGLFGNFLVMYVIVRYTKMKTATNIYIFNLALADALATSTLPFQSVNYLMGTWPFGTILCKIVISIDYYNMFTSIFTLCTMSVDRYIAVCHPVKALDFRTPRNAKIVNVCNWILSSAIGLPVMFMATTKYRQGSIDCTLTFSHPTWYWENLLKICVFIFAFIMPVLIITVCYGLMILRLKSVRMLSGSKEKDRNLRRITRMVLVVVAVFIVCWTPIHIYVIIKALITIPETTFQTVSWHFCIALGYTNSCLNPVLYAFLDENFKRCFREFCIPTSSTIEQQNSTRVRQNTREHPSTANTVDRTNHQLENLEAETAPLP
UniProt P35372: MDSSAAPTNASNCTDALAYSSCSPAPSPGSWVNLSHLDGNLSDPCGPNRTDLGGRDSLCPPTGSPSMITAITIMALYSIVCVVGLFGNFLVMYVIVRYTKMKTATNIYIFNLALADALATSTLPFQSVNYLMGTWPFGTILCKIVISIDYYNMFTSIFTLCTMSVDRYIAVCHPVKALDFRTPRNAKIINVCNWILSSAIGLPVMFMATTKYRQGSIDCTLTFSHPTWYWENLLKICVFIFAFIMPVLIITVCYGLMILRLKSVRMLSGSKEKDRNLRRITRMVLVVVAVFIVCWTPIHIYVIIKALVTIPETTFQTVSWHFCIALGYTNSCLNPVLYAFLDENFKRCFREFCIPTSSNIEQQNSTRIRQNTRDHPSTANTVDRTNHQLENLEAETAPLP
MOR second intracellular loop (IL2, residues 166-187), GAL4 DNA-binding domain fusion: residues 166-187 of P35372
MOR third intracellular loop (IL3, residues 260-282), GAL4 DNA-binding domain fusion: residues 260-282 of P35372
MOR C-terminal domain (C-tail, residues 342-400), GAL4 DNA-binding domain fusion: residues 342-400 of P35372

For assay [1], the target named is FLAG-tagged D2 dopamine receptor stably expressed in HEK293 cells (293-D2R cells) (UniProt P14416). Kind of assay: co-IP; lysates of 293-MOR or 293-D2R cells precipitated with anti-FLAG antibodies, blot with anti-GPR177 for the endogenous protein.
The target of assay [2] is MOR, endogenously expressed in PC12 cells and rat brain (rat (endogenous in PC12 cells and rat brain)) (UniProt P33535). Kind of assay: co-IP; PC12 cell lysate, endogenous proteins, precipitated with anti-MOR antibodies, blot with anti-GPR177.
The target is the same in assay [3]. Description: co-IP; total rat brain lysate, endogenous proteins, precipitated with anti-MOR antibodies, blot with anti-GPR177.
Assay [4] deals with mu-opioid receptor (MOR), full-length human, split-ubiquitin bait (human) (UniProt P35372). Kind of assay: two-hybrid; modified split-ubiquitin membrane yeast two-hybrid (MYTH) screen; full-length human MOR as bait (pCCW-STE), human fetal brain cDNA library as prey (pPR3-N), S. cerevisiae THY.AP4, SD -Trp/-Leu/-His/-Ade with 3AT.
In assay [5] the target is MORIL2-GST fusion protein (amino acids 166-187 of the human MOR fused to GST) (human) (UniProt P35372). Kind of assay: pull-down; MORIL2-GST fusion protein (or GST-coated beads) incubated with bacterial lysate holding S-tagged GPR177 fragment; blot with HRP-conjugated S-tag antibody; only the target purified.
Assay [6] concerns the target MOR second intracellular loop (IL2, residues 166-187), GAL4 DNA-binding domain fusion (human) (UniProt P35372). Description: two-hybrid; directed conventional Y2H; MOR intracellular domains in GAL4 DNA-binding domain vector pAS2-1, GPR177-CT in GAL4 activation domain vector pACT2, S. cerevisiae MAV103, beta-galactosidase filter lift.
For assay [7], the target named is MOR third intracellular loop (IL3, residues 260-282), GAL4 DNA-binding domain fusion (human) (UniProt P35372). Described as above.
In assay [8] the target is MOR C-terminal domain (C-tail, residues 342-400), GAL4 DNA-binding domain fusion (human) (UniProt P35372). Described as above.
Assay [9] concerns the target MOR first intracellular loop (IL1, residues 97-103), GAL4 DNA-binding domain fusion (human) (UniProt P35372). The assay is described as above.

Results are given in words; binding and its absence hold for the method and conditions named. For part of these data: Binding seen in cells or lysates may run through a third protein. Some binding calls cover weakened binding; strength is not graded here. For part of these data: Sequences can lack the tags named with a protein.

B1: GPR177, endogenously expressed in HEK293-derived cells (protein, UniProt Q5T9L3 1-541)
chain: MAGAIIENMSTKKLCIVGGILLVFQIIAFLVGGLIAPGPTTAVSYMSVKCVDARKNHHKTKWFVPWGPNHCDKIRDIEEAIPREIEANDIVFSVHIPLPHMEMSPWFQFMLFILQLDIAFKLNNQIRENAEVSMDVSLAYRDDAFAEWTEMAHERVPRKLKCTFTSPKTPEHEGRYYECDVLPFMEIGSVAHKFYLLNIRLPVNEKKKINVGIGEIKDIRLVGIHQNGGFTKVWFAMKTFLTPSIFIIMVWYWRRITMMSRPPVLLEKVIFALGISMTFINIPVEWFSIGFDWTWMLLFGDIRQGIFYAMLLSFWIIFCGEHMMDQHERNHIAGYWKQVGPIAVGSFCLFIFDMCERGVQLTNPFYSIWTTDIGTELAMAFIIVAGICLCLYFLFLCFMVFQVFRNISGKQSSLPAMSKVRRLHYEGLIFRFKFLMLITLACAAMTVIFFIVSQVTEGHWKWGGVTVQVNSAFFTGIYGMWNLYVFALMFLYAPSHKNYGEDQSNGDLGVHSGEELQLTTTITHVDGPTEIYKLTRKEAQE
B1: the binding result in assay [1] was “no binding”.

B2: GPR177, endogenously expressed in PC12 cells and rat brain (protein, UniProt Q6P689 1-541)
chain: MAGAIIENMSTKKLCIVGGILLVFQIVAFLVGGLIAPAPTTAVSYVAAKCVDVRKNHHKTRWLMPWGPNKCNKINDFEEAIPREIEANDIVFSVHIPLPSMEMSPWFQFMLFILQIDIAFKLNNQIRENAEVSMDVSLGYRDDMFSEWTEMAHERVPRKLRCTFTSPKTPEHEGRHYECDVLPFMEIGSVAHKYYLLNIRLPVNEKKKINVGIGEIKDIRLVGIHQNGGFTKVWFAMKTFLTPSIFIIMVWYWRRITMMSRPPVLLEKVIFALGISMTFINIPVEWFSIGFDWTWMLLFGDIRQGIFYAMLLSFWIIFCGEHMMDQHERNHIAGYWKQVGPIAVGSFCLFIFDMCERGVQLTNPFYSIWTTDVGTELAMAFIIVAGICLCLYFLFLCFMVFQVFRNISGKQSSLPAMSKVRRLHYEGLIFRFKFLMLITLACAAMTVIFFIVSQVTEGHWKWGGVTVQVSSAFFTGIYGMWNLYVFALMFLYAPSHKNYGEDQSNGDLGVHSGEELQLTTTITHVDGPTEIYKLTRKEAQE
As to B2, the binding entry in assay [2] and in [3] was “binds” in each case.

B3: GPR177 C-terminal domain (residues 451-541), split-ubiquitin prey clone (domain or fragment, UniProt Q5T9L3 451-541)
chain: IVSQVTEGHWKWGGVTVQVNSAFFTGIYGMWNLYVFALMFLYAPSHKNYGEDQSNGDLGVHSGEELQLTTTITHVDGPTEIYKLTRKEAQE
On to B3, for which, in assay [4], the binding entry is “binds”.

B4: S-tagged GPR177 C-terminal fragment (residues 451-541) (domain or fragment, UniProt Q5T9L3 451-541)
chain: IVSQVTEGHWKWGGVTVQVNSAFFTGIYGMWNLYVFALMFLYAPSHKNYGEDQSNGDLGVHSGEELQLTTTITHVDGPTEIYKLTRKEAQE
Regarding B4, the binding entry in [5] is listed as “binds”.

B5: GPR177-CT (residues 451-541) in the GAL4 activation domain vector pACT2 (domain or fragment, UniProt Q5T9L3 451-541)
chain: IVSQVTEGHWKWGGVTVQVNSAFFTGIYGMWNLYVFALMFLYAPSHKNYGEDQSNGDLGVHSGEELQLTTTITHVDGPTEIYKLTRKEAQE
For the molecule B5, the binding entry in [6] was “binds”; in assay [7] it was “no binding”; in [8], “no binding”; in assay [9] it was “no binding”.
